Measurements reported in the supplement of paper PMC6531468.
This is one part of the list. Read counts after selection give these values, which scatter widely. Each score is taken over the longer molecules that contain the sequence shown.

How the values were obtained:
Test in all cases: 6-mer SELEX enrichment z-score vs GST control; IMP3 is the RNA-binding protein IGF2BP3; higher = more enriched by binding
[1] = system: IMP3 KH1-4; settings: construct: KH1-4 (164-579); SELEX round: R4
Protocol: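 SELEX-seq with GST-tagged IMP3 KH1-4 (Pro164-Lys579) and an N40 RNA pool, round 4. 6-mer z-score of sequence-tag enrichment normalised to the corresponding GST SELEX round; RNA k-mers written as DNA (T for U).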

[2] = system: IMP3 RRM1-2; settings: construct: RRM1-2 (1-163); SELEX round: R2
Chain of IMP3 RRM1-2 (chain, as listed by the source): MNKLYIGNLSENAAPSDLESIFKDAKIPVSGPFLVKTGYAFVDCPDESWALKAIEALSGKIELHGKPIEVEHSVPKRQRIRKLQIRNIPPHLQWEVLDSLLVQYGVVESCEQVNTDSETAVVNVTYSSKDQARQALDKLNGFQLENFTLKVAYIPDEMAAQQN
Protocol: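 SELEX-seq with GST-tagged IMP3 RRM1-2 (Met1-Asn163) and an N40 RNA pool, round 2. 6-mer enrichment z-score normalised to GST SELEX. RNA written as DNA (T = U).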

[3] = molecular target: IMP3 full-length (UniProt O00425); settings: construct: FL IMP3 (1-579); SELEX round: R4
Chain of UniProt O00425 (O00425 whole entry): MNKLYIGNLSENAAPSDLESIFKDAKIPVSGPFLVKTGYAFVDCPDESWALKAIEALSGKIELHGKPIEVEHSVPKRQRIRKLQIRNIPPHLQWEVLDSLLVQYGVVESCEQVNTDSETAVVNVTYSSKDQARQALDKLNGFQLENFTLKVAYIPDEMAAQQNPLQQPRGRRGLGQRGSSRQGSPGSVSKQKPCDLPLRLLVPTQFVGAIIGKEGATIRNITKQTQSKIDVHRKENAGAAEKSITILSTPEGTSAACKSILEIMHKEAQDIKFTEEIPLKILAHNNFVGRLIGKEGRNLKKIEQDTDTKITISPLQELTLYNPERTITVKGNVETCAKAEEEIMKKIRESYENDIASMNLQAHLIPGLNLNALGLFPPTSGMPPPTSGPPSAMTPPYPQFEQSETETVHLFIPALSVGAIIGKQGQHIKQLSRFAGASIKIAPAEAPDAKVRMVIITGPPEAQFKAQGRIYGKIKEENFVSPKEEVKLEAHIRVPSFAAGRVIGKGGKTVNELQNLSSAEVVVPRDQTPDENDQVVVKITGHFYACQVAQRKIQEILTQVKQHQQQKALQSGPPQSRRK
Protocol: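 SELEX-seq with GST-tagged full-length IMP3 and an N40 RNA pool, round 4. Each 6-mer is scored as an enrichment z-score of sequence tags containing it, normalised to the matching GST SELEX round. RNA written as DNA (T = U).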

[4] = system: IMP3 KH1-2; settings: construct: KH1-2 (164-376); SELEX round: R4
Chain of IMP3 KH1-2 (chain, as listed by the source): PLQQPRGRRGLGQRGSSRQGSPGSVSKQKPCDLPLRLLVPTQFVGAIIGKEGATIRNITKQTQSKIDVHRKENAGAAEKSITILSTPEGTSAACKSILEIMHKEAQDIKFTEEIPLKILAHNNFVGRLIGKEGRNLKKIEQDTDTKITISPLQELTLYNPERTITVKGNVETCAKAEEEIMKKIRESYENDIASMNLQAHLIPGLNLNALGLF
Protocol: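 SELEX-seq with GST-tagged IMP3 KH1-2 (Pro164-Phe376) and an N40 RNA pool, round 4 (stringent 300/600 mM KCl washes). 6-mer z-score of sequence-tag enrichment normalised to the corresponding GST SELEX round; RNA k-mers written as DNA (T for U).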

[5] = system: IMP3 KH3-4; settings: construct: KH3-4 (377-579); SELEX round: R4
Chain of IMP3 KH3-4 (chain, as listed by the source): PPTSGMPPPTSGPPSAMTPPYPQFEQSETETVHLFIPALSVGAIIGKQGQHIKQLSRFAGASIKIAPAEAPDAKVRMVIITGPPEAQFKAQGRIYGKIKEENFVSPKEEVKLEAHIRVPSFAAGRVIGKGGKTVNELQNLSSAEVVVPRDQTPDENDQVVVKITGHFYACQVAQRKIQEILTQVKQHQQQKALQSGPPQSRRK
Protocol: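 SELEX-seq with GST-tagged IMP3 KH3-4 (Pro377-Lys579) and an N40 RNA pool, round 4. 6-mer z-score of sequence-tag enrichment normalised to the corresponding GST SELEX round; RNA k-mers written as DNA (T for U).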

Chain of IMP3 KH1-4 (chain, as listed by the source): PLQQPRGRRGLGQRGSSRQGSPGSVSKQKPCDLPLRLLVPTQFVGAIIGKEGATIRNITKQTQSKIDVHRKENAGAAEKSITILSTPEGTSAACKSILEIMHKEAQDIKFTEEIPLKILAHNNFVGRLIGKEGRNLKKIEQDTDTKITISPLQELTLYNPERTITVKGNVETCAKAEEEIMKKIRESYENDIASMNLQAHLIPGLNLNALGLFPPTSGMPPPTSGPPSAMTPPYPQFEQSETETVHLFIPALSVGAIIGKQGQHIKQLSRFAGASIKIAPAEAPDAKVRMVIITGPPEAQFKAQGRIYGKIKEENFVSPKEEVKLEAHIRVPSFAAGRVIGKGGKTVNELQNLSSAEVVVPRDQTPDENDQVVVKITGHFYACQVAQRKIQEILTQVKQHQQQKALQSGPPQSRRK

| Sequence | 6-mer SELEX enrichment z-score [1] | 6-mer SELEX enrichment z-score [2] | 6-mer SELEX enrichment z-score [3] | 6-mer SELEX enrichment z-score [4] | 6-mer SELEX enrichment z-score [5] |
| --- | --- | --- | --- | --- | --- |
| AAAGTC | -0.259 | -0.673 | -0.298 | -0.51 | -0.299 |
| GGACGG | 0.703 | -0.541 | 0.687 | 0.657 | 0.445 |
| CGCAGA | -0.415 | -0.044 | 0.159 | -0.274 | -0.468 |
| ACACCG | -0.084 | -0.045 | 0.671 | 0.176 | -0.898 |
| TAACCG | -0.589 | -0.971 | -0.819 | -0.363 | -0.597 |
| CCATCG | -0.322 | 0.088 | 0.15 | -0.496 | -0.814 |
| TCTCCG | -0.346 | 0.073 | 0.089 | -0.132 | -0.404 |
| TGTTCT | 0.399 | 0.369 | 0.118 | 0.314 | 0.39 |
| CAGCAA | 0.287 | 0.95 | 1.24 | 0.352 | -0.063 |
| ATGCGA | -0.594 | -0.494 | -0.429 |  | -0.501 |
| CAACTT | 0.31 | 0.1 | 0.066 |  | 0.026 |
| GGGGTT | 0.363 | 0.513 | 0.355 |  | 0.651 |
| GGACCG | -0.203 | -0.881 | 0.007 | -0.271 | -0.581 |
| TCTGTC | 0.625 | 0.306 | 0.46 |  | 0.271 |
| GCAGCC | 0.302 | 0.227 | 1 | 0.329 | -0.328 |
| GCGTTT | -0.834 | 0.476 | -0.2 |  | -0.475 |
| GCATCC | 0.383 | 0.291 | 1.45 |  | -0.488 |
| CAGACC | -1.01 | -0.265 | -0.676 |  | -1.57 |
| TGACAC | 0.552 | 0.091 | 0.244 |  | 0.069 |
| TTCGAA | -0.848 | -0.406 | -0.787 | -0.733 | -0.597 |
| TTGCTC | -0.024 | 0.334 | 0.027 |  | -0.003 |
| TATGAT | 1.33 | -0.108 | -0.021 | 1 | 1.78 |

| Sequence | 6-mer SELEX enrichment z-score [1] | 6-mer SELEX enrichment z-score [2] | 6-mer SELEX enrichment z-score [3] | 6-mer SELEX enrichment z-score [4] | 6-mer SELEX enrichment z-score [5] |
| --- | --- | --- | --- | --- | --- |
| AACAGC | -1.05 | 0.55 | 0.359 | -0.717 | -1.1 |
| ACTAGC | -0.175 | -0.008 | -0.227 |  | -0.287 |
| GCTGCA | 1.1 | 0.219 | 0.93 |  | 0.567 |
| GGTGTG | 0.176 | 0.231 | 0.128 | 0.199 | 0.23 |
| CGTTTA | -0.186 | 0.11 | -0.196 |  | -0.004 |
| ACACGC | 0.797 | 1.03 | 1.19 | 0.869 | 0.07 |
| GTTAAG | -0.238 | -0.064 | -0.372 |  | 0.018 |
| CCAACC | -1.96 | -0.43 | -1.78 | -1.72 | -2.81 |
| GTTCAT | 0.729 | 0.696 | 0.852 | 0.693 | 0.647 |
| ACTCGC | -0.899 | 0.101 | -0.316 |  | -0.972 |
| ACGTGG | -0.427 | -0.256 | -0.257 |  | -0.424 |
| CGCTGC | 0.153 | -0.001 | 0.212 |  | -0.177 |
| TAGAAT | 0.835 | -0.464 | -0.151 | 0.649 | 1.44 |
| TGTAAA | 0.212 | -0.945 | -0.816 |  | 0.695 |
| GCCGAG | -1.47 | -0.625 | 0.007 | -1.24 | -1.21 |
| TATATT | 1.7 | 0.406 | 0.501 |  | 2.31 |
| CATTAT | 1.83 | 0.904 | 1.2 |  | 1.91 |
| TTACCG | -0.046 | -0.354 | -0.271 |  | -0.236 |
| GCCATT | 0.649 | 0.293 | 0.63 |  | 0.52 |
| GCTGTT | 0.06 | 0.311 | 0.02 |  | 0.114 |
| CGAATG | -0.84 | -1.04 | -1.03 |  | -0.702 |
| AAGCTG | -0.354 | -0.508 | -0.519 |  | -0.387 |

| Sequence | 6-mer SELEX enrichment z-score [1] | 6-mer SELEX enrichment z-score [2] | 6-mer SELEX enrichment z-score [3] | 6-mer SELEX enrichment z-score [4] | 6-mer SELEX enrichment z-score [5] |
| --- | --- | --- | --- | --- | --- |
| AGAGCA | -1.1 | 0.468 | 0.327 |  | -0.84 |
| GCAACT | -0.116 | 0.051 | 0.245 |  | -0.332 |
| GGGTGA | 0.164 | -0.139 | 0.182 |  | 0.383 |
| CCTCCG | -0.434 | -0.41 | -0.287 |  | -0.99 |
| TCGAAC | -1.93 | -0.501 | -1.11 |  | -1.9 |
| ATATCA | 1.9 | 1.77 | 1.74 |  | 2.04 |
| AGTACT | -0.585 | -0.021 | -0.36 |  | -0.527 |
| TCGAGT | -1.01 | 0.335 | -0.272 |  | -0.721 |
| GGGGAG | 1.14 | -0.19 | 0.536 |  | 1.18 |
| CTTTTA | 1.03 | 0.159 | 0.162 |  | 1.29 |
| GGGCCA | -0.122 | 0.091 | 0.597 |  | -0.008 |
| GGAACA | 0.898 | 0.946 | 0.779 |  | 0.594 |
| GAGTTC | -0.176 | 0.187 | -0.014 |  | -0.066 |
| GGTGTC | -0.457 | 0.524 | 0.102 |  | -0.248 |
| TCTCTA | 0.174 | 0.32 | 0.065 |  | 0.217 |
| ATAAAG | 0.8 | -1.02 | -0.242 |  | 1.61 |
| GTTGGC | 0.328 | 0.44 | 0.493 |  | 0.279 |
| AATGTA | 0.44 | -0.502 | -0.611 |  | 0.901 |
| CAAGCC | -1.06 | -0.301 | -0.434 |  | -1.43 |
| TAAGAT | 0.997 | -0.46 | -0.21 |  | 1.63 |
| CCATAG | 0.178 | 0.263 | 0.284 |  | -0.018 |
